Reference: PubChem BioAssay AID889 (National Center for Advancing Translational Sciences (NCATS), 2007)
Among all 75,000 compounds or so, about 15 (0.02%) were called active. This list was built around the results that the source calls inconclusive (neither active nor inactive); the mix of calls is not that of the screen. The call rests on the fitted dose curve; in most records, active means well fitted inhibition curve with a large enough effect in the main read-out, with a control signal flat (not every such curve was filed as active); inconclusive means small, poorly fitted or top-dose-only effect, or a change in a side signal; inactive means flat fitted curve, though single readings scatter. A potency beside an inconclusive call is a rough fit, not a confirmed value. “Side channel” marks fits to a control or component signal instead of the main read-out.

What follows are compounds tested against Caspase-7 (Homo sapiens) (UniProt P55210) (assay: qHTS Assay for Allosteric/Competitive Inhibitors of Caspase-7). Details: recombinant caspase-7, Ac-DEVD-AFC fluorescence rate; activity change, negative = inhibition: at 57.5 µM (top of the series) unless noted.
Potency means the concentration at half of the fitted maximal effect; tags describe the fitted curve by direction and shape or compound fluorescence and quenching.
Wherever activity change, negative = inhibition is given: % of control where 0% means no effect.

UniProt P55210, sequence (P55210 whole entry, looked up): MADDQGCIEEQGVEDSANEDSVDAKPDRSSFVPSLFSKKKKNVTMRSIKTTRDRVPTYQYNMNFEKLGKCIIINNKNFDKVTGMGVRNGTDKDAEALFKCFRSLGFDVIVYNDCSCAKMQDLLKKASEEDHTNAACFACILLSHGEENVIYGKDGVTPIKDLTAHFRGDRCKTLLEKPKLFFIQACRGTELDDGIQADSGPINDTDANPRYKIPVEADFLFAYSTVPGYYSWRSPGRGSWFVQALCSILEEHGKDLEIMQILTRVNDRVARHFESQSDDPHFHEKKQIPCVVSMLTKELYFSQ

Potency, inconclusive:
Cn1c(=O)c(-c2ccccc2)nc2cnc(OCc3ccccc3)nc21 25.1 µM [inhibitor, single point], COc1ccc2oc(=O)c(-c3nnc(NCc4ccco4)s3)cc2c1 6.31 µM [fluorescent, side channel, partial curve], Cc1ccc2nc(N3CCN(C(=O)c4cccs4)CC3)c(C#N)cc2c1 31.6 µM [fluorescent, single point], CCOc1ccc(N=CC2=C(O)CC(C)(C)CC2=O)cc1 39.8 µM [inhibitor, single point], N#Cc1c(-c2ccccc2)cc(-c2ccco2)c(C#N)c1N 7.94 µM [fluorescent, side channel, partial curve], CC(C)OC(=O)CCCN1C(=O)c2ccc(N)cc2C1=O 15.8 µM [fluorescent, partial curve], CSc1ccccc1NC(=O)c1c(C)noc1C 12.6 µM [fluorescent, side channel, partial curve], COc1ccc2cc(CN(CCCN3CCOCC3)Cc3nnnn3C3CCCC3)c(=O)[nH]c2c1 39.8 µM [inhibitor, single point], Cc1ccc(S(=O)(=O)C(C#N)c2nc3ccccc3nc2N2CCCC2)cc1C (configuration not stated) 15.8 µM [fluorescent, partial curve], Cc1cccn2c(=O)c3cc(C#N)c(=NC(=O)c4cccnc4)n(CC4CCCO4)c3nc12 (configuration not stated) 2.51 µM [fluorescent, side channel, full curve], N#Cc1c(N)nc(SCC(=O)OCc2ccccc2)c(C#N)c1-c1ccco1 25.1 µM [inhibitor, single point], CCN(CC)c1nc(C#N)cc(-c2ccc(OC)cc2)n1 31.6 µM [fluorescent, partial curve], COc1cccc(Nc2ncc3nc(-c4ccc(F)cc4)c(=O)n(C)c3n2)c1 3.16 µM [fluorescent, full curve], CCC(=O)N1CCN(c2nc(-c3ccccc3)c3c(c2C#N)CCCC3)CC1 31.6 µM [inhibitor, single point], Cc1cc(C)c2cc(C#N)c(NCCCNC(=O)CCC(=O)O)nc2c1 15.8 µM [fluorescent, partial curve], Cn1cc(-c2nc3cncnc3n(Cc3ccccc3Cl)c2=O)c2ccccc21 0.631 µM [inhibitor, full curve], Cc1cc(N2CCC(N(C)C3CCCC3)CC2)nc2cc(O)ccc12 12.6 µM [fluorescent, side channel, partial curve], O=C(O)Cn1c(O)c(C=Nc2ccccc2)sc1=S 25.1 µM [inhibitor, partial curve], CCCn1c(=N)c(C(=O)NCC2CCCO2)cc2c(=O)n3cccc(C)c3nc21 (configuration not stated) 1 µM [fluorescent, side channel, full curve], COc1cc(OC)c2c(=O)c(O)c(-c3ccc(OC)c(OC)c3)oc2c1 25.1 µM [fluorescent, partial curve], COC(=O)C1=C(C)NC2=C(C(=O)CC(c3cccs3)C2)C1c1ccsc1 (configuration not stated) 31.6 µM [inhibitor, single point], O=C(CN1C(=O)c2cccc3cccc1c23)Nc1ccc(S(=O)(=O)N2CCOCC2)cc1 31.6 µM [fluorescent, side channel, partial curve], CN1CCCN(C(=O)Cc2c(Cl)cccc2Cl)c2nc3ccccc3nc21 25.1 µM [fluorescent, side channel, single point], Cn1cc(-c2nc3cnc(N4CCOCC4)nc3n(C3CC3)c2=O)c2ccccc21 0.794 µM [fluorescent, side channel, partial curve], CCc1ccc(C2CC(=O)N3CN(c4ccccc4)CSC3=C2C#N)cc1 (configuration not stated) 20 µM [inhibitor, single point], CCCCN(C)CCn1c(=S)[nH]c2ccc(N3CCOCC3)cc2c1=O 31.6 µM [fluorescent, side channel, single point], COc1ccc(Cn2c3nc4ccccc4nc3c3c(=O)n(Cc4ccco4)c(C)nc32)cc1 31.6 µM [inhibitor, single point], Cn1c(C(C#N)C(=O)c2ccco2)nc2ccccc21 (configuration not stated) 39.8 µM [inhibitor, single point], COc1cc2c(cc1OC)CN(Cc1cccs1)CC2 31.6 µM [fluorescent, side channel, single point], Nc1c(C(=O)Nc2ccccc2)sc2nc(-c3ccco3)ccc12 15.8 µM [fluorescent, side channel, partial curve], COc1ccc(S(=O)(=O)C(C#N)c2nc3ccccc3nc2N2CCCCC2)cc1 (configuration not stated) 6.31 µM [fluorescent, side channel, partial curve], CCOC(=O)c1cc2c(=O)n3cc(C)ccc3nc2n(Cc2cccnc2)c1=N 6.31 µM [fluorescent, side channel, partial curve], FC(F)(F)c1ccccc1-c1nc(NCc2cccnc2)c2ccccc2n1 20 µM [inhibitor, partial curve], CN(C)c1ncc2nc(-c3ccc(F)cc3)c(=O)n(C[C@H]3CCCO3)c2n1 3.16 µM [fluorescent, side channel, full curve], C=CCn1c(=N)c(C(=O)NCCCOC)cc2c(=O)n3ccccc3nc21 5.01 µM [fluorescent, side channel, partial curve], CCOc1ccc2nc(NCCNS(=O)(=O)c3ccccc3)c(C#N)cc2c1 12.6 µM [fluorescent, side channel, partial curve], CN1CCN(c2ncc3nc(-c4cn(C)c5ccccc45)c(=O)n(Cc4cccs4)c3n2)CC1 2 µM [inhibitor, full curve], CN1CC=C2C(C#N)=C(N)C(C#N)(C#N)C(Cc3ccccc3)C2C1 (configuration not stated) 25.1 µM [fluorescent, partial curve], CCN1CC=C2C(C#N)=C(N)C(C#N)(C#N)C(CCc3ccccc3)C2C1 (configuration not stated) 25.1 µM [fluorescent, side channel, partial curve], COc1ccc2nc(SCC(=O)N3CCCCCC3)c(C#N)cc2c1 31.6 µM [inhibitor, single point], COc1ccc2c3c(cccc13)NN=C2C 15.8 µM [inhibitor, partial curve], COc1ncc2nc(-c3cccs3)c(=O)n(-c3ccccc3)c2n1 2.51 µM [fluorescent, side channel, full curve], COc1ccc(-n2c(=O)c(-c3cccs3)nc3cnc(N4CCOCC4)nc32)cc1 1.58 µM [fluorescent, side channel, full curve], COc1cccc(Cn2c(=O)c(-c3ccccc3)nc3cnc(N4CCNCC4)nc32)c1 15.8 µM [fluorescent, partial curve], CCCNC(=O)c1c(N)n(-c2cccc(OC)c2)c2nc3ccccc3nc12 12.6 µM [fluorescent, side channel, partial curve], Cc1cc(N)c2cc(OCCOc3ccc4nc(C)cc(N)c4c3)ccc2n1 3.98 µM [fluorescent, partial curve], Cc1cc(C)n(-c2nc3ccccc3nc2Nc2ccc3c(c2)OCO3)n1 25.1 µM [fluorescent, partial curve]

Activity change, negative = inhibition, inconclusive:
c1ccc(CCn2nnnc2C(c2cccnc2)N2CCN(c3ccccc3)CC2)cc1 (configuration not stated) -61.3% [inhibitor] [at 0.00368 µM]

Activity change, negative = inhibition, inactive:
CC(=O)C1=C(C)NC(SCSc2ccccc2)=C(C#N)C1c1cccnc1 (configuration not stated) -28.1%, COc1ccc(C(C(=O)NC2CCCCC2)N(CC2CCCO2)C(=O)CNC(=O)c2ccco2)cc1 (configuration not stated) -3.18%, Cc1cccc(NC(=O)CSc2nnc(-c3ccccc3)n2N)c1 -4.28%, COC(=O)c1cccc(NC(=O)c2ccc(S(=O)(=O)N3CCN(C)CC3)cc2)c1 2.46%, CCCC(=O)N(c1ccc2oc(=O)sc2c1)S(=O)(=O)c1cccs1 0.169%, CCC(C)(C)n1nnnc1CN(Cc1ccco1)Cc1cc2cc3c(cc2[nH]c1=O)OCO3 -0.776%, CC(=O)Nc1cccc(Oc2ccc(-c3noc(C)n3)cc2)c1 -0.0299%, CCc1ncc(CO)n1Cc1cccc2ccccc12 3.35% [at 11.5 µM], O=C(COC(=O)c1cccnc1)Nc1cccc(Cl)c1 1.14%, CC(=O)c1c(C)[nH]c(C(=O)CSc2nc3ccccc3c(=O)n2CCCN2CCOCC2)c1C -0.785%, Nc1ccc(Cl)cc1[N+](=O)[O-] -0.081%, CN1CC[C@H](CN2c3ccccc3Sc3ccccc32)C1 0.491% [at 11.5 µM], Cc1ccc(C2C(C#N)=C(N)SC(N)=C2C#N)o1 -17.7%, COc1ccc(CNc2ccnc(-c3ccccc3Cl)n2)c(OC)c1 -3.01%
